The record followed here is the supplement of paper PMC10126150.

Values marked as one replicate rest on one cluster of the flow cell; about a third of the high ones do not repeat.

For the data set, the system named is ATP. The experiment in a line: switch fluorescence ratio, 500 uM ATP over buffer (Cy3 cluster intensity, sum of 5 cycles each) (fold (ratio)); higher = stronger signal-on switching upon ATP binding; sequences stand for … in TCGTCGGCAGCGTCAGATGTGTATAAGAGACAGTTTTTTTTTTTTTTTTTTTTTTTTT…TC. The conditions noted are these: aptamer strand: ATP DNA aptamer (quencher-CACCTGGGGGAGTATTGCGGAGGAAGG + anchor), 100 nM annealed; ATP concentration: 500 uM; one replicate. The method, boiled down: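 After annealing to 100 nM quencher-labelled ATP aptamer, Cy3-labelled switching-strand clusters on a modified Illumina MiSeq flow-cell were imaged in selection buffer. A second image followed after 15 min with 500 uM ATP at 22 °C, and five such buffer/ATP cycles were done, each separated by NaOH stripping and re-annealing. The fluorescence ratio, averaged per switch-domain sequence, is summed target-cycle over summed buffer-cycle Cy3 intensity per cluster, with clusters outside 100-1000 RFU excluded.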
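Also: ATP exposure 15 min at 22 °C before imaging.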

As to TGAAAAATAT, the switch fluorescence ratio was 0.961.

On to GGACAGCGGG, for which the switch fluorescence ratio was 0.99.

On to AGGGAGCCGC, for which the switch fluorescence ratio was determined as 1.03.

With TATTCGTATA, the switch fluorescence ratio was 1.19.

With CGAACGGGCG, the switch fluorescence ratio was found to be 0.97.

With GATCATCTGT, the switch fluorescence ratio was found to be 1.01.

ATAGGCCATA: the switch fluorescence ratio turned out to be 1.07.

As for TGGTACATAC, the switch fluorescence ratio was 1.36.

For CCCTCTGTCC, the switch fluorescence ratio was 1.12.

As for CTCTTGCTTG, the switch fluorescence ratio is 0.986.

AATCCACTGA: the switch fluorescence ratio turned out to be 1.04.

Turning to CTCCTCGTGG, the switch fluorescence ratio came to 1.07.

Regarding TGACGCTAGC, the switch fluorescence ratio is 2.05.

In the case of CGGGATCCGT, the switch fluorescence ratio is 1.02.

With GCTTCTGCGG, the switch fluorescence ratio worked out at 1.04.

For the sequence AGTCGATCGG, the switch fluorescence ratio is 1.02.

As for GCGGACACAG, the switch fluorescence ratio is 1.

Turning to CAATTCTTGC, the switch fluorescence ratio was determined as 1.03.

For the sequence AAAGGCCTGC, the switch fluorescence ratio was 0.997.

As for TCTACTGCTC, the switch fluorescence ratio came to 1.09.

As to TGAGCTTCGG, the switch fluorescence ratio is 0.983.

With ATATAAAATT, the switch fluorescence ratio was found to be 1.01.

GAAGTACCCT: the switch fluorescence ratio came to 1.01.

Consider TTAAAGTCGC, for which the switch fluorescence ratio was determined as 0.977.

On to CAGTCACTGT, for which the switch fluorescence ratio came out at 1.

With CTCCGTATGG, the switch fluorescence ratio was determined as 3.53.

With TTTCACCATC, the switch fluorescence ratio worked out at 0.989.

ACGATAGTCA: the switch fluorescence ratio came to 0.992.

GCGATGGGCA: the switch fluorescence ratio came out at 0.992.

Regarding GACAGGAAAG, the switch fluorescence ratio was found to be 0.977.

Consider CTCCGGGCGT, for which the switch fluorescence ratio was determined as 1.61.

Regarding GGAATCCCAT, the switch fluorescence ratio was 1.06.

Consider GAGTCGTTCC, for which the switch fluorescence ratio amounted to 1.11.

CAGTCGAAGA: the switch fluorescence ratio was 1.

Consider AATTGGTGCC, for which the switch fluorescence ratio worked out at 0.976.

Take GGTCAGGGGG: the switch fluorescence ratio was 0.975.

For TGATCCGGTT, the switch fluorescence ratio came to 1.01.

With AAATGCGTCG, the switch fluorescence ratio is 1.07.

AACCGTTGCC: the switch fluorescence ratio was 1.07.

On to GAGATCTCAC, for which the switch fluorescence ratio came out at 0.982.

On to AAGTGAGTTG, for which the switch fluorescence ratio worked out at 0.998.

On to AGTCCCGGCG, for which the switch fluorescence ratio was 1.01.

In the case of CATTCATTGC, the switch fluorescence ratio stood at 1.03.

Take TCTTCATACC: the switch fluorescence ratio is 1.04.

Turning to TAATTACTGG, the switch fluorescence ratio turned out to be 1.01.

On to GGTCTTCGGC, for which the switch fluorescence ratio is 1.12.

With GGCGGCCATC, the switch fluorescence ratio worked out at 1.01.

Consider AGAGATGACT, for which the switch fluorescence ratio is 1.01.

For the sequence TAAACAGTCG, the switch fluorescence ratio is 1.08.

TACTGAAAGC: the switch fluorescence ratio amounted to 1.05.

For the sequence GGTGGGCGAG, the switch fluorescence ratio was 1.08.

Turning to GTGCGAATGT, the switch fluorescence ratio is 0.979.

Take GACATGACGA: the switch fluorescence ratio was 1.39.

For TTAATGGCCC, the switch fluorescence ratio was determined as 0.986.

In the case of ATGATATCAG, the switch fluorescence ratio was 1.

As to GATACGAACA, the switch fluorescence ratio came out at 1.46.

Take TGGCATCTGC: the switch fluorescence ratio amounted to 1.

As for AAATCCATA, the switch fluorescence ratio is 1.01.

Take GCACTTAAGG: the switch fluorescence ratio stood at 1.05.

For TACGAGAGGG, the switch fluorescence ratio is 1.

In the case of ATTTGGGGT, the switch fluorescence ratio was found to be 1.02.

In the case of TACCGGTTAT, the switch fluorescence ratio came out at 0.958.

As for ACATATGATT, the switch fluorescence ratio came out at 1.03.

Turning to CCTGAATTGC, the switch fluorescence ratio came out at 1.29.

With ACCCTTTGTG, the switch fluorescence ratio was determined as 0.999.

In the case of TCCTTGAACC, the switch fluorescence ratio turned out to be 1.06.

With AAAAGGTCGA, the switch fluorescence ratio was found to be 0.964.

As for AACGTACCGC, the switch fluorescence ratio is 1.71.

For CTCTTTCACG, the switch fluorescence ratio worked out at 1.05.

Turning to TGGCGAAAGC, the switch fluorescence ratio is 1.03.

With CGGTACCGGT, the switch fluorescence ratio turned out to be 1.05.

Consider CGTGCGAGTA, for which the switch fluorescence ratio was 1.01.

In the case of TTCCGTTTT, the switch fluorescence ratio turned out to be 1.02.

Turning to GAGGGGGTAT, the switch fluorescence ratio came out at 0.991.

AAAAATTTAC: the switch fluorescence ratio worked out at 1.1.

CGAAAACCGC: the switch fluorescence ratio stood at 1.06.

For CATTTCTAAT, the switch fluorescence ratio was found to be 0.996.

Turning to GAAGCACCAT, the switch fluorescence ratio was determined as 1.1.

For ACGGGGAGAT, the switch fluorescence ratio worked out at 1.06.
